For experiment [1], the target named is T1, human FcRn (Biorbyt, cat. no. orb84388) (human, UniProt P55899 24-297; P61769 21-119, limits assumed).
T1 construct: Bought soluble protein; not biotinylated on Biacore chips and ELISA coat; also called hFcRn
Description: ELISA, hFcRn coated, pH 6.0. Background: An ELISA detects its analyte on a solid surface through an enzyme-linked reagent.

For experiment [2], the target named is T1, human FcRn (Biorbyt, cat. no. orb84388). Kind of experiment: ELISA, hFcRn coated, pH 7.4.
Experiment [3] has as its target T2, human FcRn-eGFP on transduced HeLa cells (human, UniProt P55899 24-365; P16213 21-119).
T2 construct: Fixed, saponin-permeabilised HeLa cells; also called hFcRn-eGFP; hFcRn; not shown: eGFP at the cytoplasmic tail
Description: flow cytometry, hFcRn-eGFP HeLa cells, blocks Alexa647-hIgG, pH 6.0. For orientation: A flow cytometer gives signals particle by particle.

In experiment [4] the target is T3, cynomolgus FcRn (Biorbyt, cat. no. orb99075) (cynomolgus, UniProt Q8SPV9 24-297; Q8SPW0 21-119, limits assumed).
T3 construct: also called cFcRn
Description: SPR Biacore, cFcRn immobilised, pH 6.0.

Experiment [5] concerns the target T1, human FcRn (Biorbyt, cat. no. orb84388). Kind of experiment: SPR Biacore, hFcRn immobilised, pH 6.0.
Experiment [6] deals with T2, human FcRn-eGFP on transduced HeLa cells. Description: flow cytometry, hFcRn-eGFP HeLa cells, blocks Alexa647-hIgG, pH 6.0. The source holds these as a separate data set.

Read-outs that look alike come from different tables or passages of the source.

In general, EC50 refers to the midpoint of the concentration-response curve. Low values mean a more potent agent, high ones a less potent agent. The term IC50 denotes the concentration needed to halve the response being measured. Higher therefore signals weaker potency in that assay. Usually Kd stands for the concentration at which binding is half-saturated. Low values mean a tighter complex, high ones a looser complex. What is called koff is the first-order rate constant of dissociation. A high value points to fast dissociation. What is called kon is the rate constant with which the complex forms. A low value points to slower complex formation.

T3 sequence (Q8SPV9 24-297 limits assumed, chain 1 of 2): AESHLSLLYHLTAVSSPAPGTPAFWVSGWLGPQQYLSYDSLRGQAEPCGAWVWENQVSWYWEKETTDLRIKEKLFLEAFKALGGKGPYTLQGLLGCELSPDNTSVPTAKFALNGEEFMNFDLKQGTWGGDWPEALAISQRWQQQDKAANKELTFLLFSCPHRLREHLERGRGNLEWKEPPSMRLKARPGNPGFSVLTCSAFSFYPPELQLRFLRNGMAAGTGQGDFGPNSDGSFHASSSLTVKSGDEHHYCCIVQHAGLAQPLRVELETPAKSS
T3 sequence (Q8SPW0 21-119 limits assumed, chain 2 of 2, further chain): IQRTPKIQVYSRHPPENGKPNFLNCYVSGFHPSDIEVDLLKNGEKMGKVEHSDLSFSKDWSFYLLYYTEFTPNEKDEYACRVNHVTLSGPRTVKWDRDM
T2 sequence (P55899 24-365, chain 1 of 2): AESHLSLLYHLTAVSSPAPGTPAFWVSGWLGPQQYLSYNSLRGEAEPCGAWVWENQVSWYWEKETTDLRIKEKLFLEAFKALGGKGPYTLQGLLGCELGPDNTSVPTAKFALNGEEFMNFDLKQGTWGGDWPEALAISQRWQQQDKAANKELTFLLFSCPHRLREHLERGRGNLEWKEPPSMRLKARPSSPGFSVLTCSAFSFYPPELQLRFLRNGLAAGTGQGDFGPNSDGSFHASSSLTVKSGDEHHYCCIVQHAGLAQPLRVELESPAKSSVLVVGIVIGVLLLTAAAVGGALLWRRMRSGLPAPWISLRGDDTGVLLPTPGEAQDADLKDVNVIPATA
T2 sequence (P16213 21-119, chain 2 of 2, further chain): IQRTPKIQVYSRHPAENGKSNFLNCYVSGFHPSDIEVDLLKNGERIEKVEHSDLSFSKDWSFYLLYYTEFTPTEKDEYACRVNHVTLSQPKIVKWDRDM
T1 sequence (P55899 24-297 limits assumed, chain 1 of 2): as the sequence (Q8SPV9 24-297 limits assumed, chain 1 of 2) above, with D39N, Q44E, S99G, G189S, N190S, M217L, T269S counted along it
T1 sequence (P61769 21-119 limits assumed, chain 2 of 2, further chain): as the sequence (P16213 21-119, chain 2 of 2, further chain) above

B1: ZAZ3871 (designed binder)
chain: AEAKFAKEADAAGHEIRWLPNLTFDQRVAFIHKLRDDPSQSSELLSEAKKLSESQAPKASGSLAEAKEAANAELDSYGVSDFYKRLIDKAKTVEGVEALKDAILAALPGTGGGGSAEAKFAKEADAAGHEIRWLPNLTFDQRVAFIHKLRDDPSQSSELLSEAKKLSESQAPK
notes: also called Z18634-ASGS-PP013-GT-(G4S)-Z18634
On to B1, for which the values for the concentration for a half-maximal effect (EC50) in experiment [1] and in experiment [2] were 0.14 nM and 0.18 nM, respectively. This molecule showed a 50% inhibitory concentration (IC50) in experiment [3] of 4.1 nM.

B2: ZAZ3870 (designed binder)
chain: AEAKFAKEWQQAAHEIRWLPNLTFDQRVAFIHKLRDDPSQSSELLSEAKKLSESQAPKASGSLAEAKEAANAELDSYGVSDFYKRLIDKAKTVEGVEALKDAILAALPGTGGGGSAEAKFAKEWQQAAHEIRWLPNLTFDQRVAFIHKLRDDPSQSSELLSEAKKLSESQAPK
notes: also called Z18633-ASGS-PP013-GT-(G4S)-Z18633
With B2, the figures for the half-maximal effective concentration (EC50) in experiment [1] and in experiment [2] were 0.26 nM and 0.57 nM, respectively. Besides, the IC50 in experiment [3] stood at 5.3 nM.

B3: ZAZ3824 (designed binder)
chain: AEAKYAKEADAAGHEIRWLPNLTFDQRVAFIHKLRDDPSQSSELLSEAKKLNDSQAPKASGSLAEAKEAANAELDSYGVSDFYKRLIDKAKTVEGVEALKDAILAALPGTGGGGSAEAKYAKEADAAGHEIRWLPNLTFDQRVAFIHKLRDDPSQSSELLSEAKKLNDSQAPK
notes: also called Z17303-ASGS-PP013-GT-(G4S)-Z17303
On to B3, for which the EC50 is 0.099 nM in experiment [1] and 0.091 nM in experiment [2]. In experiment [3], this molecule gave a 50% inhibitory concentration (IC50) of 3.8 nM.

B4: ZAZ3869 (designed binder)
chain: AEAKFAKEWTDAAHEIRWLPNLTFDQRVAFIHKLRDDPSQSSELLSEAKKLSESQAPKASGSLAEAKEAANAELDSYGVSDFYKRLIDKAKTVEGVEALKDAILAALPGTGGGGSAEAKFAKEWTDAAHEIRWLPNLTFDQRVAFIHKLRDDPSQSSELLSEAKKLSESQAPK
notes: also called Z18632-ASGS-PP013-GT-(G4S)-Z18632
Regarding B4, the values for the EC50 in experiment [1] and in experiment [2] were 0.3 nM and 0.73 nM, respectively. This molecule yielded an IC50 in experiment [3] of 4.7 nM.

B5: His6-tagged Z13616 (designed binder)
chain: MGSSHHHHHHLQVDAKYAKEWQQAAHEIRWLPNLTFDQRVAFIHKLRDDPSQSSELLSEAKKLNDSQAPKVD
In turn, B5 had a dissociation constant (Kd) in experiment [4] of 11 nM.

B6: His6-tagged Z13676 (designed binder)
chain: MGSSHHHHHHLQVDAKYAKEATSAGHEIRWLPNLTFDQRVAFIVKLRDDPSQSSELLSEAKKLNDSQAPKVD
As to B6, the Kd turned out to be 6.2 nM in experiment [4] and 5.5 nM in experiment [5].

B7: His6-tagged Z13675 (designed binder)
chain: MGSSHHHHHHLQVDAKYAKENQAAAHEIRWLPNLTFDQRVAFIHKLRDDPSQSSELLSEAKKLNDSQAPKVD
For the molecule B7, the Kd in experiment [4] turned out to be 11 nM.

B8: His6-tagged Z13577 (designed binder)
chain: MGSSHHHHHHLQVDAKYAKEWHQAAHEIRWLPNLTFDQRVAFIHKLRDDPSQSSELLSEAKKLNDSQAPKVD
On to B8, for which the Kd in experiment [4] is 5.4 nM.

B9: His6-tagged Z13663 (designed binder)
chain: MGSSHHHHHHLQVDAKYAKEWQIAAHEIRWLPNLTFDQRVAFIHKLRDDPSQSSELLSEAKKLNDSQAPKVD
B9: the equilibrium dissociation constant (Kd) in experiment [4] was 10 nM; in experiment [5] it was 8.7 nM.

B10: His6-tagged Z13578 (designed binder)
chain: MGSSHHHHHHLQVDAKYAKEWTDAAHEIRWLPNLTFDQRVAFIHKLRDDPSQSSELLSEAKKLNDSQAPKVD
On to B10, for which, in experiment [4], binding was characterised by a dissociation constant (Kd) of 21 nM, the koff is 0.011 s⁻¹ and the kon is 560000 M⁻¹ s⁻¹. In experiment [5], this molecule yielded a Kd of 18 nM, a koff of 0.0073 s⁻¹ and an association rate constant (kon) of 410000 M⁻¹ s⁻¹.

B11: His6-tagged Z07918 (designed binder)
chain: MGSSHHHHHHLQVDAKYAKEQDAAAHEIRWLPNLTFDQRVAFIHKLADDPSQSSELLSEAKKLNDSQAPKVD
notes: Primary Z variant; also called His6-Z07918
Regarding B11, in experiment [4], the Kd came to 19 nM.

B12: His6-tagged Z13592 (designed binder)
chain: MGSSHHHHHHLQVDAKYAKEVDIAAHEIRWLPNLTFDQRVAFIHKLRDDPSQSSELLSEAKKLNDSQAPKVD
In experiment [4], B12 registered a dissociation constant (Kd) of 15 nM, a koff of 0.011 s⁻¹ and an association rate constant (kon) of 750000 M⁻¹ s⁻¹. For the same molecule, in experiment [5], binding was put at a Kd of 12 nM, the koff is 0.0072 s⁻¹ and the on-rate (kon) amounted to 590000 M⁻¹ s⁻¹.

B13: His6-tagged Z13674 (designed binder)
chain: MGSSHHHHHHLQVDAKYAKEIEDAGHEIRWLPNLTFDQRVAFIHKLRDDPSQSSELLSEAKKLNDSQAPKVD
As for B13, in experiment [4], the affinity, expressed as Kd, was 7.1 nM; the koff was found to be 0.0059 s⁻¹; the on-rate (kon) amounted to 830000 M⁻¹ s⁻¹. Also, in experiment [5], the dissociation constant Kd came to 7 nM, the off-rate constant (koff) came out at 0.0037 s⁻¹ and the kon was found to be 530000 M⁻¹ s⁻¹.

B14: His6-tagged Z13669 (designed binder)
chain: MGSSHHHHHHLQVDAKYAKELASAGHEIRWLPNLTFDQRVAFIHKLRDDPSQSSELLSEAKKLNDSQAPKVD
In experiment [4], B14 came in with a dissociation constant Kd of 5.6 nM, a koff of 0.0046 s⁻¹ and a kon of 820000 M⁻¹ s⁻¹. Further, in experiment [5], the dissociation constant (Kd) was determined as 4.9 nM, the koff is 0.0028 s⁻¹ and the on-rate constant (kon) is 560000 M⁻¹ s⁻¹.

B15: His6-tagged Z13621 (designed binder)
chain: MGSSHHHHHHLQVDAKYAKEADAAGHEIRWLPNLTFDQRVAFIHKLRDDPSQSSELLSEAKKLNDSQAPKVD
For B15, the Kd in experiment [4] was found to be 7.6 nM; in experiment [5], 6.8 nM. For the same molecule, the half-inhibitory concentration (IC50) in experiment [3] is 22 nM; in experiment [6], 17 nM.

B16: His6-tagged Z13583 (designed binder)
chain: MGSSHHHHHHLQVDAKYAKELEKAGHEIRWLPNLTFDQRVAFIHKLRDDPSQSSELLSEAKKLNDSQAPKVD
Molecule B16 came in with a Kd in experiment [4] of 6.6 nM. The molecule also had an IC50 in experiment [6] of 33 nM.

B17: His6-tagged Z13654 (designed binder)
chain: MGSSHHHHHHLQVDAKYAKELEAAKHEIRWLPNLTFDQRVAFIHKLDDDPSQSSELLSEAKKLNDSQAPKVD
In experiment [4], B17 gave a Kd of 15 nM, an off-rate (koff) of 0.013 s⁻¹ and an on-rate constant (kon) of 840000 M⁻¹ s⁻¹. In experiment [5], this molecule had a Kd of 16 nM, a dissociation rate constant (koff) of 0.0095 s⁻¹ and a kon of 600000 M⁻¹ s⁻¹.

B18: Z11948-(G4S)3-Z11948, His6-tagged (designed binder)
chain: AEAKYAKEQDAAAHEIRWLPNLTFDQRVAFIHKLADDPSQSSELLSEAKKLNDSQAPKGTGGGGSGGGGSGGGGSAEAKYAKEQDAAAHEIRWLPNLTFDQRVAFIHKLADDPSQSSELLSEAKKLNDSQAPKLEHHHHHH
With B18, the IC50 in experiment [6] came out at 4.5 nM.

B19: Z11948-(G4S)-Z11948, His6-tagged (designed binder)
chain: AEAKYAKEQDAAAHEIRWLPNLTFDQRVAFIHKLADDPSQSSELLSEAKKLNDSQAPKGTGGGGSPRAEAKYAKEQDAAAHEIRWLPNLTFDQRVAFIHKLADDPSQSSELLSEAKKLNDSQAPKLEHHHHHH
In experiment [6], B19 came in with a half-inhibitory concentration (IC50) of 3.5 nM.

B20: His6-tagged Z18632 (designed binder)
chain: AEAKFAKEWTDAAHEIRWLPNLTFDQRVAFIHKLRDDPSQSSELLSEAKKLSESQAPK
notes: Y5F, N52S, D53E and N-terminal AE; not shown: N-terminal His6-tag
B20 yielded an IC50 in experiment [3] of 84 nM.

B21: His6-tagged Z18634 (designed binder)
chain: AEAKFAKEADAAGHEIRWLPNLTFDQRVAFIHKLRDDPSQSSELLSEAKKLSESQAPK
notes: as for B20
The molecule B21 came in with a 50% inhibitory concentration (IC50) in experiment [3] of 36 nM.

These data come from patent publication US20190284241A1 (Affibody, published 2019).
